The values below come from publication PMC4336329 (PLoS ONE, 2015).

Screen size: about 310,000 compounds; about 2,200 (0.71%) showed an effect of 50% or more. Effects have a minus sign here. Some of the results follow.

For the assay, the target named is human ether-à-go-go-related gene (hERG) potassium channel (human, UniProt Q12809). The assay is described as follows: primary screen, population patch clamp on CHO cells stably expressing hERG.
Chain of human ether-à-go-go-related gene (hERG) potassium channel (Q12809 whole entry, looked up): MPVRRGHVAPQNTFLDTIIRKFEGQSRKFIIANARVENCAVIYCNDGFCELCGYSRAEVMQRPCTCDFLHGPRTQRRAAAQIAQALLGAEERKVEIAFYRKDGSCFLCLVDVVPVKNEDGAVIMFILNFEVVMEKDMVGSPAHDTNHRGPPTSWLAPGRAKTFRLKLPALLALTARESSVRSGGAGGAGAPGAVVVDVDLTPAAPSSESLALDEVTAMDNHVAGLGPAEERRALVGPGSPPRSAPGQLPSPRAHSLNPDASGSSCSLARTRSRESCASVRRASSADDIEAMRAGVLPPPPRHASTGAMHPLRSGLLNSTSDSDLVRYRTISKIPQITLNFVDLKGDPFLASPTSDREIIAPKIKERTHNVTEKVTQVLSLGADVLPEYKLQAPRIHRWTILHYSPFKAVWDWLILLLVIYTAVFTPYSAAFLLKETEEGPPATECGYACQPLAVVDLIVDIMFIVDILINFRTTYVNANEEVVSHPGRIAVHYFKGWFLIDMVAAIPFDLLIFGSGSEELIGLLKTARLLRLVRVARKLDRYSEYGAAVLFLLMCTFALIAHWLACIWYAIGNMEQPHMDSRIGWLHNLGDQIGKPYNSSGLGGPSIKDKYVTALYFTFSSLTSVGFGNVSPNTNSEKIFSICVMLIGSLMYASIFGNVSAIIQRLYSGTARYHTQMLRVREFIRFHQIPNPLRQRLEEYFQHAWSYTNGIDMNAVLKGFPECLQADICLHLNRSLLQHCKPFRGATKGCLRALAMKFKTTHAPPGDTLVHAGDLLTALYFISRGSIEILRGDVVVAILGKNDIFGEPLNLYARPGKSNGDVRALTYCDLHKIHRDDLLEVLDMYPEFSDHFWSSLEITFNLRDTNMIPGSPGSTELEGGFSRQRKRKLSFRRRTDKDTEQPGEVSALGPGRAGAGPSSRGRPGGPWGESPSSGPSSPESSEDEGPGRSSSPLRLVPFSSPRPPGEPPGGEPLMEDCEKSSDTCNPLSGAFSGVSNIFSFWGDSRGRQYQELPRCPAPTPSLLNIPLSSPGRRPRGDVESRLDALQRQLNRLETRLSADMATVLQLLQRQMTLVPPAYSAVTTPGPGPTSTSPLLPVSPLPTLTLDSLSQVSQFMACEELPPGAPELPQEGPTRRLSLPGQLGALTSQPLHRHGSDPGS
Regarding `COc1ccc(NC(=O)Cn2cnc3sc(C)c(S(=O)(=O)N4CCOCC4)c3c2=O)cc1Cl`, the “hERG current change (%, negative = inhibition) at 1uM” value stood at 5.74%.
With `O=C(CCN1C(=O)/C(=C\c2ccccc2Cl)SC1=S)N1CCN(c2ccccc2)CC1`, the “hERG current change (%, negative = inhibition) at 1uM” value was found to be 10.8%.
The result for `COc1ccc(C(CNC(=O)c2ccco2)N2CCCC2)cc1` (stereo not drawn) reads 3.46%; that for `COC(=O)c1cc(=O)n(Cc2cccs2)c(=NCc2cccs2)s1`, -1.68%; that for `CCOc1ccc(CCN2C(=O)CCC2(C)C(=O)NC(C)CC)cc1OCC` (stereo not drawn), -2.1%.
The same measure for `Cc1ccc(S(=O)(=O)NCCc2nnc3ccc(NCCCOC(C)C)nn23)cc1`: 9.3%; for `Cn1cc(C(N)=O)c2ccccc21`: 9.33%; for `COc1ccccc1NC(=O)CN1CCN(c2ccccc2OC)CC1`: 13.7%.
The same measure for `COc1ccc(CCNC(=O)CC(=O)NCCc2ccc(OC)cc2)cc1`: 14.2%; for `Cc1c(C(=O)n2cnc3ccccc32)cccc1[N+](=O)[O-]`: 8.77%; for `N#Cc1ccsc1NC(=O)COC(=O)C1=NNC(=O)CC1`: 10.5%.
As to `COc1ccc(N(C(=O)c2ccc(Br)o2)C2C=CS(=O)(=O)C2)c(OC)c1` (stereo not drawn), the “hERG current change (%, negative = inhibition) at 1uM” value came out at 7.73%.
`COc1ccc(OC)c(N(C(=O)c2snc(C(N)=O)c2N)C(C(=O)NCc2ccccc2)c2ccc(O)cc2)c1` (stereo not drawn): the “hERG current change (%, negative = inhibition) at 1uM” value is -14.5%.
The result for `Cc1cc(-c2ccccc2)nc(N2CCC(C(=O)NC(C)C)CC2)n1` reads 5.49%.
Consider `CCOC(=O)Cn1cnc2c(nnn2-c2ccccc2)c1=O`, for which the “hERG current change (%, negative = inhibition) at 1uM” value is -3.55%.
The same measure for `COc1ccc(C(=O)N[C@H](C(=O)Nc2ccc(OC)nc2)C(C)C)cc1`: 2.05%; for `COc1ccc(CCNC(=O)c2ccc3nc(N4CCCCC4)sc3c2)cc1OC`: 7.61%; for `CC(=O)Nc1ccc(C(=O)OCc2ccc(Br)cc2)cc1`: 5.12%.
The same measure for `CN(Cc1ccc(OCC(O)CN(C)Cc2ccccc2)cc1)Cc1nccn1C` (stereo not drawn): 1.21%; for `Fc1ccc(-c2nnc3sc(C4COc5ccccc5O4)nn23)cc1` (stereo not drawn): -9.28%; for `Cc1[nH]n(C(N)=S)c(=O)c1N=Nc1ccccc1C(F)(F)F`: 13.2%.
For `O=c1cc(Nc2ccc3c(c2)OCO3)[nH]c(=O)n1-c1ccc(Br)cc1`, the “hERG current change (%, negative = inhibition) at 1uM” value came to 12.4%.
Turning to `Cc1cc(N(C)Cc2ccccc2)nc(-c2ccccc2)n1`, the “hERG current change (%, negative = inhibition) at 1uM” value is 1.51%.
The same measure for `Cc1ccc(O)c(-c2cc(-c3cccc(F)c3)n[nH]2)c1`: 19.5%; for `Cc1nnn(-c2nonc2N)c1C(=O)NNC(=O)c1ccc(Cl)c(Cl)c1`: 11.4%.
The same measure for `CCOC(=O)c1ccc(NC(=O)N2CCN(S(C)(=O)=O)CC2)cc1`: 14.4%.
The same measure for `Cc1c(NC(NC(=O)CF)C(Cl)(Cl)Cl)c(=O)n(-c2ccccc2)n1C` (stereo not drawn): 11.8%; for `COc1ccc(CNC(=O)CCOc2ccc(C(C)(C)C)cc2)cc1`: 9.68%; for `O=C(COC(=O)c1ccco1)NCc1cccs1`: 21.5%.
On to `Cc1cc(C)nc(SCC(=O)Nc2ncc(C(F)(F)F)cc2Cl)n1`, for which the “hERG current change (%, negative = inhibition) at 1uM” value amounted to 4.1%.
For the compound `CN(C(=O)c1ccc(OC2CCN(CCc3ccccc3)CC2)cc1)C1CCCCC1`, the “hERG current change (%, negative = inhibition) at 1uM” value was -27.7%.
The same measure for `CCN(CC)S(=O)(=O)c1ccc(C(=O)N2CCN(c3ncccn3)CC2)cc1`: 9.24%; for `CC1CCCC(C)N1C(=O)c1cc(-c2ccc3c(c2)OCO3)on1` (stereo not drawn): 9.61%.
The same measure for `CC(=O)Nc1ccc(S(=O)(=O)Nc2cccc(N(C)S(C)(=O)=O)c2)cc1`: 14.7%.
The result for `Cc1cc(C)n2cc(CSc3nc4cc(Cl)ccc4o3)nc2n1` reads -36.5%; that for `CC(=O)c1ccc(-c2ccc(C(=O)N3CCN(c4ccc(F)cc4)CC3)o2)cc1`, 4.06%.
As for `CCCCN1C(=O)C(=O)NC[C@@H]1CCCCN`, the “hERG current change (%, negative = inhibition) at 1uM” value is 11.8%.
The result for `CN(C)C(=O)COc1ncnc2sc(-c3ccccc3)cc12` reads 10.6%.
The same measure for `COC(=O)C1=C(c2c(C)noc2C)C[C@@H]2CC[C@H]1N2C(=O)NCc1ccc(F)cc1`: 10.6%.
As for `O=[N+]([O-])c1cc(S(=O)(=O)Nc2ccc(Cl)cc2)ccc1N/N=C/c1ccncc1`, the “hERG current change (%, negative = inhibition) at 1uM” value is listed as 5.08%.
The result for `C#CCOc1c(Cl)cc(/C=N/NC(N)=S)cc1OCC` reads 1.35%.
The same measure for `O=C(CSc1ccc2nnc(-c3ccncc3)n2n1)Nc1ccc2c(c1)OCO2`: 13.8%; for `CCOCCCNC(=O)C1CCC(CNS(=O)(=O)c2ccc(F)cc2)CC1` (stereo not drawn): 2.55%; for `Nc1nonc1C(=O)OCC(=O)N1CCOCC1`: 7.64%.
The result for `Cc1cccc(C(=O)OCc2cc3ccccc3[nH]c2=O)c1` reads 16.7%; that for `Cc1cc(C)c(/C=C(\C#N)S(=O)(=O)c2ccccc2)[nH]1`, 14.3%.
As for `CC(C)(C)C(=O)Nc1ccc(S(=O)(=O)NC2=NCCCCC2)cc1`, the “hERG current change (%, negative = inhibition) at 1uM” value was 13.8%.
The result for `CCCCCC1CCC(C(=O)N2CCOCC2)CC1` (stereo not drawn) reads 14.7%; that for `Cc1ccc2nc(-c3cccc(N)c3)[nH]c2c1`, 13%.
The result for `Cc1ccnc(NS(=O)(=O)c2ccc(N=CC3=C(O)CC(C)(C)CC3=O)cc2)n1` reads -4.04%; that for `C1CC2NCCC3NCCC(N1)N32` (stereo not drawn), 5.12%; that for `CC(C)NC(=O)NC(=O)COC(=O)Cc1ccsc1`, 5.11%.
The same measure for `COc1ccc(NC(=O)CSCC(=O)N(C)CCOc2ccc(Cl)cc2)cc1`: -9.12%; for `CCS(=O)(=O)c1ccc2c(c1)N(S(=O)(=O)c1ccc(Cl)cc1)CC(C(=O)O)O2` (stereo not drawn): 1.76%; for `COc1ccc(NC(=O)CSc2nnc(C3CCCCC3)n2N)c(OC)c1`: 13.2%.
`O=C(Nc1cccc(S(=O)(=O)N2CCCCC2)c1)C1CCN(C(=O)c2ccc(Cl)cc2)CC1`: the “hERG current change (%, negative = inhibition) at 1uM” value was found to be 10.5%.
Take `CCNc1nc(NCC)n2c(SCC(=O)c3ccc(C(C)C)cc3)nnc2n1`: the “hERG current change (%, negative = inhibition) at 1uM” value amounted to 12.2%.
